Experimental data: patent publication US9034928B2, “Methods for metabolic imaging” (IMAGNX, Inc., priority 2011, dated 2015)
Where a name gives a salt, the structure may show the parent alone.

Tests used:
[1] = statement without a test; cited from earlier work
[2] = system: TCA cycle; conditions: statement without a test; cited from earlier work
[3] = statement without a test; cited from earlier work; remark: listed apart in the source
[4] = biological target: T1, succinate dehydrogenase (Mus musculus, UniProt Q8K2B3); experiment: 3-Nitropropionate inhibition, ^13C MRS before and after i.p. injection; assay type: in vivo
T1 construct: in a mouse before (spectrum A) and after (spectrum B) the mouse was injected with 3-nitropropionate; from tissue; host or cells: living mouse (whole animal, in vivo 13C MRS)
Description: 3-nitropropionate is a known irreversible inhibitor of succinate dehydrogenase.
FIG. 4 illustrates example ^13C MRS spectra illustrating hyperpolarized diethyl 1-^13C 2,3-d2 succinate in a mouse before (spectrum A) and after (spectrum B) the mouse was injected with 3-nitropropionate. […] The aqueous solution of 5 mg/ml of 3-nitropropionate (Sigma-Aldrich) was brought to a pH of 8.5 using a drop of 50% NaOH solution.

[5] = has to be injected in a 20% ethanol aqueous solution; cited from earlier work

T1 sequence (Q8K2B3 43-664): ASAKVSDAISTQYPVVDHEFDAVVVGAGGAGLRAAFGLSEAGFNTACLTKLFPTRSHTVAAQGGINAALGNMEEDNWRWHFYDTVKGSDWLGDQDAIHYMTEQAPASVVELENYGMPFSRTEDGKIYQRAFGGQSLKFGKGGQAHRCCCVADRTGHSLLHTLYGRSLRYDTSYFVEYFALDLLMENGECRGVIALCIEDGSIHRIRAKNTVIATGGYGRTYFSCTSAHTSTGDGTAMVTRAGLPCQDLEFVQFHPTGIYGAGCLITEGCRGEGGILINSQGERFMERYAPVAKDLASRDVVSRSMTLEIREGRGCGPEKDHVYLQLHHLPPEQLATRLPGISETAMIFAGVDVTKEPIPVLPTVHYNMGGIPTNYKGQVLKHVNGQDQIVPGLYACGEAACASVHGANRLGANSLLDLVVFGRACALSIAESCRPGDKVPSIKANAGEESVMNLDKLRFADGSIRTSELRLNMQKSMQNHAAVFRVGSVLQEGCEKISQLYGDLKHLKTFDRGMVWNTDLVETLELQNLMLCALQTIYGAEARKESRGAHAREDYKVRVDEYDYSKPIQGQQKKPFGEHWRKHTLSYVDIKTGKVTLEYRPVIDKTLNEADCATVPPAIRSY
T1 sequence (Q9CQA3 31-282 partner): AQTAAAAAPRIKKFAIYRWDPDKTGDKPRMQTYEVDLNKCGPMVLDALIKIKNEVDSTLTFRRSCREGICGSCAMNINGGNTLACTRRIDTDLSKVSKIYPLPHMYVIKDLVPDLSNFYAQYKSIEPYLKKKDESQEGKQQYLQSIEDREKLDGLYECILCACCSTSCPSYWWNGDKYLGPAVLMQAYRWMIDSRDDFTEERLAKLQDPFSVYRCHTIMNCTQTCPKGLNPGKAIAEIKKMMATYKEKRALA
T1 sequence (Q9CZB0 30-169 partner): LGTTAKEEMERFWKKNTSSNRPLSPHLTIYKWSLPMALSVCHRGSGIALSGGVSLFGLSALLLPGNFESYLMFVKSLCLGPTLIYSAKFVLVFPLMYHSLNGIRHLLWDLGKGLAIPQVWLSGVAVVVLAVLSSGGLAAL
T1 sequence (Q9CXV1 57-159 partner): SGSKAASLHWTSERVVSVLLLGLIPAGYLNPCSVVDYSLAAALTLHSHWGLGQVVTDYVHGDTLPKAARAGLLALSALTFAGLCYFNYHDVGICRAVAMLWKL

SMILES | toxicity [1] | metabolism [2] | also measured
CCOC(=O)CCC(=O)OCC [Diethyl succinate] | non-toxic |  | 
CCOC(=O)/C=C/C(=O)OCC [Diethyl fumarate] | non-toxic | metabolized in the TCA cycle | transport across biological membranes [3]: crosses biological membranes
CC[13C](=O)OCCO [^13C 2-hydroxy ethyl propionate, reference compound] | toxic | not metabolized | 
O=C(O)CC[N+](=O)[O-] [3-nitropropionate] |  |  | downfield succinate resonance after 3-nitropropionate treatment ([4]; 200 μl of 5 mg/ml i.p., 20 minute wait, 10 μmol hyperpolarized diethyl 1-^13C 2,3-d2 succinate i.v.): significantly reduced; mice with a reduction to complete loss of the succinate peak ([4]; after 3-nitropropionate treatment): Three out of the four
[2H]C([2H])C([2H])([2H])[13C](=O)OCC(F)(F)C(F)F [TFPP, 2,2,3,3-tetrafluoropropyl-1-^13C priopionate-d2,2,3,3] |  |  | water solubility [5]: not very water soluble
